# According to paper PMC12136788:
# The list shows a part of the results.
# B1: chr2:70277881:70277982:+|3pUTR|ENSG00000116005|msi1|FALSE|unique (ssRNA)
# RNA: GGGAGUUCUACAGUCCGACGAUCACCUGAGGGAGAACUUAAAGACAUCUUAGUUGGGGAGUAGUCCUUUUGAAUUUUACAGCUAGAUAUAAUCUUCAGUCAGAUAAAAUUUAUGGGAGCUGGUGUCUUAUGCCUGACUCUUAGCAACAGAGGAUUGAGCAUCA
# B2: chr6:105098323:105098438:-|3pUTR|ENSG00000112276|msi1|FALSE|unique (ssRNA)
# RNA: GGGAGUUCUACAGUCCGACGAUCUAUCAGUGUCUCAAUGUGAAGAUUGUAACCUCAAGAUUAGGAAUCUUAAAAGAGCCACUUAGCCUGAAUGGGAAACGUGAGACUAUUUUUAAACACACACCUCUAAGGAAGAAGCCUCCCCAACAGAGGAUUGAGCAUCA
# B3: chr14:23351947:23352451:-|CDS|ENSG00000092096|control|control|control (ssRNA)
# RNA: GGGAGUUCUACAGUCCGACGAUCUGCCUCUGGCUGGGAGCAGCCUCCCAAUGCCAGCGGCGUCAGCGUCGCCAGCGCUGCCCUAGCAGCCAGCGCCGCCAGCCGUGUCGCCACCAGUACCGACCCCUCGUGCAGCGGCUUCGCCAACAGAGGAUUGAGCAUCA
# B4: chr19:17816511:17817055:-|three_prime_utr|ENSG00000248099|control|control|control (ssRNA)
# RNA: GGGAGUUCUACAGUCCGACGAUCCUACCCCAGACCAAUGCCACCUGCAGCCUGUGGAGUCAACUGCAGAAUAAAUCACACCCUAGCCCUGGCUUGGAGGAUCCCCGCUUUCACAGAUGCUGGACACUGACAGCCAAAUGUCCUCAACAGAGGAUUGAGCAUCA
# B5: chr19:53353201:53353302:+|CDS|ENSG00000213799|msi1|FALSE|unique (ssRNA)
# RNA: GGGAGUUCUACAGUCCGACGAUCCACAAUUCAGCCCUUGAAAUUCAUAAGGCAAUUCAUACUGGAGAAAAACCUUACAAGUGUAGUGAAUGUGGCAAGGUUUUUAAUAGAAAAGCAAACCUUUCACGUCAUCAUAGACUUCAUCAACAGAGGAUUGAGCAUCA
# B6: ENSG00000182944:stop:overlap|stop_codon|ENSG00000182944|stop_codon|NA|stop_codon (ssRNA)
# RNA: GGGAGUUCUACAGUCCGACGAUCGAGGACCUGGAAAAAUGGAUAAAGGCGAGCACCGUCAGGAGCGCAGAGAUCGGCCCUACUAGAUGCAGAGACCCCGCAGAGCUGCAUUGACUACCAGAUUUAUUUUUUAAACCAGAAAAUCAACAGAGGAUUGAGCAUCA
# B7: chr1:205084032:205084133:-|CDS|ENSG00000174529|msi1|FALSE|unique (ssRNA)
# RNA: GGGAGUUCUACAGUCCGACGAUCGGAGACCGUCUGUGAGGUGGGCCCUGAUGGAGUGAGAAGGAAAUGUCAGACUCGGCGCUUAGAAUGUCUGACCAACUGGAUCUGUGGGAUGCUCCAUUUCACCAUUCUCAUUGGCAAGGACAACAGAGGAUUGAGCAUCA
# B8: chr8:23842320:23842421:-|3pUTR|ENSG00000159167|msi1|total|mutant (ssRNA)
# RNA: GGGAGUUCUACAGUCCGACGAUCUAUGUAUCUACAAUACAUAUAUCUACACAUACAGAAAGAAGCAGUUCUCACAAUGUUGCCCGUUUUUUGCUUCUCUUUCCCCCACCCUACUCCCUCCAAUUCCCCCUUAAACUUCCAAAGCAACAGAGGAUUGAGCAUCA
# B9: ENSG00000198589:be:win_7451|CDS|ENSG00000198589|bound_else_gene|NA|bound_elsewhere_windowed (ssRNA)
# RNA: GGGAGUUCUACAGUCCGACGAUCUGAGUCCAUUGAUGUUCACAGACAAAGCCCAGCAGGAUGUUAUCAUGGUCCUCAAGUUUCCCUCCAACUCCCCUGUUACUCACGUGGCAGCCAACACCCAGCCUGGUUUGGCAACUCCCGCAACAGAGGAUUGAGCAUCA
# B10: chrX:64224827:64225650:-|CDS|ENSG00000198881|control|control|control (ssRNA)
# RNA: GGGAGUUCUACAGUCCGACGAUCCCUAGACCAUGGUGCAGAGGCCAACGUCAAAGCUAAACUACCAGUCUGGGCAUCAAACAUAGCUUCAUGUUCUGGCCCCCUCUAUUUGGCCGCAGUCUACGGGCACCUGGACUGUUUCCGCAACAGAGGAUUGAGCAUCA
# B11: chr12:29451344:29451569:-|CDS|ENSG00000187950|control|control|control (ssRNA)
# RNA: GGGAGUUCUACAGUCCGACGAUCGAAGCAGAGCUAGAAAAGCCUAGAGGCUUUUUUCCCACACCACGGUAUCUACUGGAUUAUAGAGGAAGACUGGAAUGUUCUUGGGUGCUCAGAGUUUCAGCAAGCAGUAUGGCAAAAUUUCAACAGAGGAUUGAGCAUCA
# B12: chr17:44959692:44960187:-|three_prime_utr|ENSG00000131094|control|control|control (ssRNA)
# RNA: GGGAGUUCUACAGUCCGACGAUCCCCGGCCCUCCCCGGCUAUGACGCCCCCGGCCCGUGCUCAACACCGCCUGGGCCACAGCUAGGCCCUCCCACCGGCUCGCUGCAGAGCCGGGCCCAGCGCGCCCUGUCCCCGUGCCAGGGCAACAGAGGAUUGAGCAUCA
# B13: chr11:123805410:123806349:-|CDS|ENSG00000196099|control|control|control (ssRNA)
# RNA: GGGAGUUCUACAGUCCGACGAUCGUGGGAGCCUUCCUGUCUGUGUUGUUUCCAACCAUUGUAGUGACAAGGCUACCUUACUGUAGGAAAGAAAUUAAUCAUUUCUUCUGUGACAUUGCCCCUCUUCUUCAGGUGGCCUGUAUACAACAGAGGAUUGAGCAUCA
# B14: chr17:58089184:58089285:+|CDS_3pUTR|ENSG00000264364|msi1_unk|total|mutant (ssRNA)
# RNA: GGGAGUUCUACAGUCCGACGAUCCAAAGCACUUCAUCUAUUUUUACUUGGGUCAAGUUGCAAUCCUCCUCUUCAAGUCAGGCCCGGUGGCCAUGGUGAAGGUGUCAGUGGCGGCGGCAGCGAUGGCAAGCAGGCGGCGUUGCUCAACAGAGGAUUGAGCAUCA
# Biological target: MSI1 full-length (mouse, UniProt Q61474 1-362)
# Sequence of UniProt Q61474 (Q61474 whole entry): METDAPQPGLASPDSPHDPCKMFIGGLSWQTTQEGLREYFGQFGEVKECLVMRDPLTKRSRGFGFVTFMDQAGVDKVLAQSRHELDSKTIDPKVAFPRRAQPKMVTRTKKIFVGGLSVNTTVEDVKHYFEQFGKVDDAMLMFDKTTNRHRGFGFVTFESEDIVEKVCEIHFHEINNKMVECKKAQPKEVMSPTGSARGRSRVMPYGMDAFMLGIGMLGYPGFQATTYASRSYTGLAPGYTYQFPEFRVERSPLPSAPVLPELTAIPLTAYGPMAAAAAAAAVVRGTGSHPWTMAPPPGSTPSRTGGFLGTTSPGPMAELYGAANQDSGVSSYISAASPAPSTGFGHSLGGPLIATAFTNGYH
# Assay: nsRBNS (natural sequence RNA bind-n-seq); RBNS binding buffer (assumed for nsRBNS): 25 mM Tris pH 7.5, 150 mM KCl, 3 mM MgCl2, 0.01% Triton X-100, 500 ug/ml BSA, 20 U/ml SUPERase-In, 4 C; UNK is unkempt and MSI1 is Musashi-1; names of the RNAs are library labels; protein concentration not given here; high values mean tight binding
row,Binder,binding signal
1,B1,1.14 enrichment R
2,B2,0.667 enrichment R
3,B3,0.366 enrichment R
4,B4,0.578 enrichment R
5,B5,1.02 enrichment R
6,B6,0.369 enrichment R
7,B7,0.55 enrichment R
8,B8,0.528 enrichment R
9,B9,0.583 enrichment R
10,B10,0.415 enrichment R
11,B11,0.74 enrichment R
12,B12,0.382 enrichment R
13,B13,0.498 enrichment R
14,B14,0.646 enrichment R
